Reference: publication PMC12820563, “FoxP3 forms a head-to-head dimer in vivo and stabilizes its multimerization on adjacent microsatellites”
The other results are listed elsewhere or left out.

molecular target: T1, MBP-FoxP1dN (Mus musculus, UniProt P58462 326-579); experiment: PD-seq (MBP pull-down with sequencing); 20 mM Tris-HCl pH 7.5, 100 mM NaCl, 1.5 mM MgCl2, 0.4 uM protein, 0.1 uM dsDNA library, 30 min, room temperature, amylose pull-down; high values mean tight binding; settings: protein: recombinant; tags: His6-MBP; chain copies: 2; dsDNA, one strand shown
T1 sequence: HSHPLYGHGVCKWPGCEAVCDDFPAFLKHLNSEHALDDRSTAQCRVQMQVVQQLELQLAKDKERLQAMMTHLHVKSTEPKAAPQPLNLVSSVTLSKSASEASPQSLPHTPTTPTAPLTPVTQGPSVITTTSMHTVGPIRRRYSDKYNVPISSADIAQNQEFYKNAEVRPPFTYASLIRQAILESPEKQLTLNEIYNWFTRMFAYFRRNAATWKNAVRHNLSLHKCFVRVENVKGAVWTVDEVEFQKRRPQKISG
Outline: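 The N-terminus-lacking fragment of mouse FoxP3 or FoxP1 carried a His6-MBP tag and was expressed in E. coli. At 0.4 µM it was incubated with 0.1 µM Klenow-filled degenerate double-stranded DNA library for 30 min at room temperature in Tris pH 7.5 buffer with NaCl and MgCl2, and complexes were caught on amylose resin, washed three times, released with proteinase K, PCR-barcoded and Illumina-sequenced. Binding is reads-per-million enrichment of pull-down over input with replicates pooled.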

Row | Sequence | binding signal
1 | GATGATTGTTCTCCCAGCTGATGAATTCGATGTGTCGAGTAAACAAATTTTCCTAATCTTTCTGTTCAAGCGCCATCTAC | 1.02 RPM ratio (pull-down/input)
2 | GATGATTGTTCTCCCAGCTGATGAATTTAGACTCTCGAGTAAACAAATTTTCCTAATCTTTCTGTTCAAGCGCCATCTAC | 0.99 RPM ratio (pull-down/input)
3 | GATGATTGTTCTCCCAGCTGATGAATTTTAGCCGTCGAGTAAACAAATTTTCCTAATCTTTCTGTTCAAGCGCCATCTAC | 0.86 RPM ratio (pull-down/input)
4 | GATGATTGTTCTCCCAGCTGATGAATTCGACGACTCGAGTAAACAAATTTTCCTAATCTTTCTGTTCAAGCGCCATCTAC | 0.805 RPM ratio (pull-down/input)
5 | GATGATTGTTCTCCCAGCTGATGAATTAAATCCCTCGAGTAAACAAATTTTCCTAATCTTTCTGTTCAAGCGCCATCTAC | 0.886 RPM ratio (pull-down/input)
6 | GATGATTGTTCTCCCAGCTGATGAATTCAGAGTATCGAGTAAACAAATTTTCCTAATCTTTCTGTTCAAGCGCCATCTAC | 0.954 RPM ratio (pull-down/input)
7 | GATGATTGTTCTCCCAGCTGATGAATTGATAGGGTCGAGTAAACAAATTTTCCTAATCTTTCTGTTCAAGCGCCATCTAC | 0.904 RPM ratio (pull-down/input)
8 | GATGATTGTTCTCCCAGCTGATGAATTGTCCCCATCGAGTAAACAAATTTTCCTAATCTTTCTGTTCAAGCGCCATCTAC | 1.08 RPM ratio (pull-down/input)
9 | GATGATTGTTCTCCCAGCTGATGAATTTGCGGACTCGAGTAAACAAATTTTCCTAATCTTTCTGTTCAAGCGCCATCTAC | 0.882 RPM ratio (pull-down/input)
10 | GATGATTGTTCTCCCAGCTGATGAATTCCAATACTCGAGTAAACAAATTTTCCTAATCTTTCTGTTCAAGCGCCATCTAC | 0.886 RPM ratio (pull-down/input)
11 | GATGATTGTTCTCCCAGCTGATGAATTGTATACGTCGAGTAAACAAATTTTCCTAATCTTTCTGTTCAAGCGCCATCTAC | 1.82 RPM ratio (pull-down/input)
12 | GATGATTGTTCTCCCAGCTGATGAATTCTTCGGTTCGAGTAAACAAATTTTCCTAATCTTTCTGTTCAAGCGCCATCTAC | 0.764 RPM ratio (pull-down/input)
13 | GATGATTGTTCTCCCAGCTGATGAATTACGATTGTCGAGTAAACAAATTTTCCTAATCTTTCTGTTCAAGCGCCATCTAC | 1.16 RPM ratio (pull-down/input)
14 | GATGATTGTTCTCCCAGCTGATGAATTGTCGGGCTCGAGTAAACAAATTTTCCTAATCTTTCTGTTCAAGCGCCATCTAC | 0.909 RPM ratio (pull-down/input)
15 | GATGATTGTTCTCCCAGCTGATGAATTGCCAGTATCGAGTAAACAAATTTTCCTAATCTTTCTGTTCAAGCGCCATCTAC | 0.962 RPM ratio (pull-down/input)
16 | GATGATTGTTCTCCCAGCTGATGAATTGTCTGGATCGAGTAAACAAATTTTCCTAATCTTTCTGTTCAAGCGCCATCTAC | 0.943 RPM ratio (pull-down/input)
17 | GATGATTGTTCTCCCAGCTGATGAATTAATCTTCTCGAGTAAACAAATTTTCCTAATCTTTCTGTTCAAGCGCCATCTAC | 0.737 RPM ratio (pull-down/input)
18 | GATGATTGTTCTCCCAGCTGATGAATTTGCGTCATCGAGTAAACAAATTTTCCTAATCTTTCTGTTCAAGCGCCATCTAC | 1.24 RPM ratio (pull-down/input)
19 | GATGATTGTTCTCCCAGCTGATGAATTAAAAACGTCGAGTAAACAAATTTTCCTAATCTTTCTGTTCAAGCGCCATCTAC | 0.945 RPM ratio (pull-down/input)
20 | GATGATTGTTCTCCCAGCTGATGAATTTAAACTCTCGAGTAAACAAATTTTCCTAATCTTTCTGTTCAAGCGCCATCTAC | 0.874 RPM ratio (pull-down/input)

Row | Sequence | binding signal
21 | GATGATTGTTCTCCCAGCTGATGAATTAGCAATTTCGAGTAAACAAATTTTCCTAATCTTTCTGTTCAAGCGCCATCTAC | 1.07 RPM ratio (pull-down/input)
22 | GATGATTGTTCTCCCAGCTGATGAATTACAAGTTTCGAGTAAACAAATTTTCCTAATCTTTCTGTTCAAGCGCCATCTAC | 1.36 RPM ratio (pull-down/input)
23 | GATGATTGTTCTCCCAGCTGATGAATTCAGGCGCTCGAGTAAACAAATTTTCCTAATCTTTCTGTTCAAGCGCCATCTAC | 0.806 RPM ratio (pull-down/input)
24 | GATGATTGTTCTCCCAGCTGATGAATTTCCTAAGTCGAGTAAACAAATTTTCCTAATCTTTCTGTTCAAGCGCCATCTAC | 0.871 RPM ratio (pull-down/input)
25 | GATGATTGTTCTCCCAGCTGATGAATTTGACAGATCGAGTAAACAAATTTTCCTAATCTTTCTGTTCAAGCGCCATCTAC | 0.874 RPM ratio (pull-down/input)
26 | GATGATTGTTCTCCCAGCTGATGAATTTCTGGCGTCGAGTAAACAAATTTTCCTAATCTTTCTGTTCAAGCGCCATCTAC | 0.836 RPM ratio (pull-down/input)
27 | GATGATTGTTCTCCCAGCTGATGAATTTCTCACTTCGAGTAAACAAATTTTCCTAATCTTTCTGTTCAAGCGCCATCTAC | 0.885 RPM ratio (pull-down/input)
28 | GATGATTGTTCTCCCAGCTGATGAATTGCAGCGGTCGAGTAAACAAATTTTCCTAATCTTTCTGTTCAAGCGCCATCTAC | 1.09 RPM ratio (pull-down/input)
29 | GATGATTGTTCTCCCAGCTGATGAATTCACTTGGTCGAGTAAACAAATTTTCCTAATCTTTCTGTTCAAGCGCCATCTAC | 0.812 RPM ratio (pull-down/input)
30 | GATGATTGTTCTCCCAGCTGATGAATTTGTCTTCTCGAGTAAACAAATTTTCCTAATCTTTCTGTTCAAGCGCCATCTAC | 1.16 RPM ratio (pull-down/input)
31 | GATGATTGTTCTCCCAGCTGATGAATTTCAACGCTCGAGTAAACAAATTTTCCTAATCTTTCTGTTCAAGCGCCATCTAC | 0.861 RPM ratio (pull-down/input)
32 | GATGATTGTTCTCCCAGCTGATGAATTGCTCCTCTCGAGTAAACAAATTTTCCTAATCTTTCTGTTCAAGCGCCATCTAC | 0.978 RPM ratio (pull-down/input)
33 | GATGATTGTTCTCCCAGCTGATGAATTCTACCGATCGAGTAAACAAATTTTCCTAATCTTTCTGTTCAAGCGCCATCTAC | 0.879 RPM ratio (pull-down/input)
34 | GATGATTGTTCTCCCAGCTGATGAATTTGTGAAATCGAGTAAACAAATTTTCCTAATCTTTCTGTTCAAGCGCCATCTAC | 1.24 RPM ratio (pull-down/input)
35 | GATGATTGTTCTCCCAGCTGATGAATTATCGGTATCGAGTAAACAAATTTTCCTAATCTTTCTGTTCAAGCGCCATCTAC | 1.02 RPM ratio (pull-down/input)
36 | GATGATTGTTCTCCCAGCTGATGAATTCGTCTTGTCGAGTAAACAAATTTTCCTAATCTTTCTGTTCAAGCGCCATCTAC | 0.827 RPM ratio (pull-down/input)
37 | GATGATTGTTCTCCCAGCTGATGAATTGTTCACCTCGAGTAAACAAATTTTCCTAATCTTTCTGTTCAAGCGCCATCTAC | 1.02 RPM ratio (pull-down/input)
38 | GATGATTGTTCTCCCAGCTGATGAATTTGGAAGATCGAGTAAACAAATTTTCCTAATCTTTCTGTTCAAGCGCCATCTAC | 0.918 RPM ratio (pull-down/input)
39 | GATGATTGTTCTCCCAGCTGATGAATTTTACACTTCGAGTAAACAAATTTTCCTAATCTTTCTGTTCAAGCGCCATCTAC | 0.913 RPM ratio (pull-down/input)
40 | GATGATTGTTCTCCCAGCTGATGAATTGCTCTGGTCGAGTAAACAAATTTTCCTAATCTTTCTGTTCAAGCGCCATCTAC | 0.872 RPM ratio (pull-down/input)
